Results as given in the supplement of paper PMC12217912.
Some of the results follow. The full chains were built here from the parent and the listed change. Inactive controls read about 0.05.

B1: TEV protease; numbered along this chain (parent)
chain: MGESLFKGPRDYNPISSSICHLTNESDGHTTSLYGIGFGPFIITNKHLFRRNNGTLVVQSLHGVFKVKDTTTLQQHLVDGRDMIIIRMPKDFPPFPQKLKFREPQREERICLVTTNFQTKSMSSMVSDTSCTFPSGDGIFWKHWIQTKDGQCGSPLVSTRDGFIVGIHSASNFTNTNNYFTSVPKNFMELLTNQEAQQWVSGWRLNADSVLWGGHKVFMVKPEEPFQPVKEATQL

Variants of: B1
Assay: raw area under fraction-flipped curve 0-4 h after induction (AUC4h, not background-subtracted), DNA-recorder readout of cleavage of the substrate (dimensionless); higher = more cleavage of the substrate by the protease variant
Details: temperature: 34 °C; time window: 0-4 h after rhamnose induction
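Further: Bxb1 expression induced with 0.2% (w/v) L-rhamnose at OD600 near 0.5, cultures sampled hourly, flipped fraction per protease–substrate barcode pair counted by paired-end Illumina sequencing.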

Variant | area with substrate EALYFQS | area with substrate ECLYFQS | area with substrate EELYFQS | area with substrate EFLYFQS | area with substrate EILYFQS | area with substrate ELLYFQS | area with substrate EMLYFQS | area with substrate EPLYFQS | area with substrate EQLYFQS | area with substrate ERLYFQS | area with substrate ESLYFQS | area with substrate EWLYFQS | area with substrate EDLYFQS | area with substrate EGLYFQS | area with substrate EVLYFQS | area with substrate EHLYFQS | area with substrate EKLYFQS | area with substrate ETLYFQS | area with substrate EYLYFQS
MGESLFKGPRDYNPISSSICHLTNESDGHTTSLYGIGFGPFIITNKHLFRRNNGTLVVQSLHGVFKVKDTTTLQQHLVDGRDMIIIRMPKDFPPFPQKLKFREPQREERICLVTTNFQTKSMSSMVSDTSCTFPSGDGIFWKHWIQTKDGQCGSPLVSTRDGFIVGIHSASNFTNTNNYFTSVPKNFMELLTNQEAQQWVSNWRLNADSVLWGGHKVFMVKPEEPFQPVKEATQL [G202N] | 0.0801 | 0.0609 | 0.0809 | 0.0719 | 0.0616 | 0.0716 | 0.0675 | 0.0505 | 0.0824 | 0.0876 | 0.0644 | 0.082 | – | – | – | – | – | – | –
MGESLFKGPRDYNPISSSICHLTNESDGHTTSLYGIGFGPFIITNKHLFRRNNGTLVVQSLHGVFKVKDTTTLQQHLVDGRDMIIIRMPKDFPPFPQKLKFREPQREERICLVTTNFQTKSMSSMVSDTSCTFPSGDGIFWKHWIQTKDGQCGSPLVSTRDGFIVGIHSASNFTNTNNYFTSVPKNFMELLTNQEAQQWVSSWRLNADSVLWGGHKVFMVKPEEPFQPVKEATQL [G202S] | 0.0825 | 0.0591 | 0.0586 | – | 0.0958 | – | 0.0778 | 0.0474 | 0.0799 | – | 0.0553 | 0.0767 | 0.0862 | 0.081 | 0.0754 | – | – | – | –
MGESLFKGPRDYNPISSSICHLTNESDGHTTSLYGIGFGPFIITNKHLFRRNNGTLVVQSLHGVFKVKDTTTLQQHLVDGRDMIIIRMPKDFPPFPQKLKFREPQREERICLVTTNFQTKSMSSMVSDTSCTFPSGDGIFWKHWIQTKDGQCGSPLVSTRDGFIVGIHSASNFTNTNNYFTSVPKNFMELLTNQEAQQWVSVWRLNADSVLWGGHKVFMVKPEEPFQPVKEATQL [G202V] | 0.0629 | 0.0694 | 0.0726 | – | 0.062 | 0.0576 | 0.0674 | – | 0.071 | 0.0631 | 0.0638 | 0.0499 | 0.0713 | 0.0465 | 0.104 | 0.0608 | 0.0654 | 0.0544 | 0.0561
MGESLFKGPRDYNPISSSICHLTNESDGHTTSLYGIGFGPFIITNKHLFRRNNGTLVVQSLHGVFKVKDTTTLQQHLVDGRDMIIIRMPKDFPPFPQKLKFREPQREERICLVTTNFQTKSMSSMVSDTSCTFPSGDGIFWKHWIQTKDGQCGSPLVSTRDGFIVGIHSASNFTNTNNYFTSVPKNFMELLTNQEAQQWVSGRRLNADSVLWGGHKVFMVKPEEPFQPVKEATQL [W203R] | 0.0765 | 0.0838 | – | 0.0749 | – | 0.0633 | – | 0.0669 | 0.0555 | 0.0634 | 0.0658 | – | 0.0725 | – | 0.0622 | – | – | – | –
MGESLFKGPRDYNPISSSICHLTNESDGHTTSLYGIGFGPFIITNKHLFRRNNGTLVVQSLHGVFKVKDTTTLQQHLVDGRDMIIIRMPKDFPPFPQKLKFREPQREERICLVTTNFQTKSMSSMVSDTSCTFPSGDGIFWKHWIQTKDGQCGSPLVSTRDGFIVGIHSASNFTNTNNYFTSVPKNFMELLTNQEAQQWVSGWELNADSVLWGGHKVFMVKPEEPFQPVKEATQL [R204E] | 0.15 | 0.116 | 0.176 | – | 0.086 | 0.0817 | – | 0.188 | 0.136 | 0.105 | – | 0.1 | – | – | 0.101 | 0.121 | 0.109 | – | –
MGESLFKGPRDYNPISSSICHLTNESDGHTTSLYGIGFGPFIITNKHLFRRNNGTLVVQSLHGVFKVKDTTTLQQHLVDGRDMIIIRMPKDFPPFPQKLKFREPQREERICLVTTNFQTKSMSSMVSDTSCTFPSGDGIFWKHWIQTKDGQCGSPLVSTRDGFIVGIHSASNFTNTNNYFTSVPKNFMELLTNQEAQQWVSGWNLNADSVLWGGHKVFMVKPEEPFQPVKEATQL [R204N] | 0.13 | 0.105 | 0.138 | 0.081 | 0.104 | – | 0.121 | 0.131 | 0.121 | 0.111 | 0.137 | – | 0.0512 | 0.095 | 0.0988 | 0.117 | 0.104 | – | 0.103
MGESLFKGPRDYNPISSSICHLTNESDGHTTSLYGIGFGPFIITNKHLFRRNNGTLVVQSLHGVFKVKDTTTLQQHLVDGRDMIIIRMPKDFPPFPQKLKFREPQREERICLVTTNFQTKSMSSMVSDTSCTFPSGDGIFWKHWIQTKDGQCGSPLVSTRDGFIVGIHSASNFTNTNNYFTSVPKNFMELLTNQEAQQWVSGWRFNADSVLWGGHKVFMVKPEEPFQPVKEATQL [L205F] | 0.0361 | 0.0788 | – | – | – | – | 0.145 | – | – | 0.0962 | – | – | 0.0778 | 0.0787 | 0.0883 | 0.169 | 0.121 | – | 0.0856
MGESLFKGPRDYNPISSSICHLTNESDGHTTSLYGIGFGPFIITNKHLFRRNNGTLVVQSLHGVFKVKDTTTLQQHLVDGRDMIIIRMPKDFPPFPQKLKFREPQREERICLVTTNFQTKSMSSMVSDTSCTFPSGDGIFWKHWIQTKDGQCGSPLVSTRDGFIVGIHSASNFTNTNNYFTSVPKNFMELLTNQEAQQWVSGWRNNADSVLWGGHKVFMVKPEEPFQPVKEATQL [L205N] | 0.0728 | 0.0383 | 0.0863 | – | 0.0744 | – | – | – | 0.0769 | – | – | – | 0.0813 | 0.049 | – | 0.0803 | – | – | –
MGESLFKGPRDYNPISSSICHLTNESDGHTTSLYGIGFGPFIITNKHLFRRNNGTLVVQSLHGVFKVKDTTTLQQHLVDGRDMIIIRMPKDFPPFPQKLKFREPQREERICLVTTNFQTKSMSSMVSDTSCTFPSGDGIFWKHWIQTKDGQCGSPLVSTRDGFIVGIHSASNFTNTNNYFTSVPKNFMELLTNQEAQQWVSGWRLNADCVLWGGHKVFMVKPEEPFQPVKEATQL [S209C] | 0.114 | 0.101 | – | 0.114 | 0.127 | 0.085 | 0.112 | – | 0.103 | 0.0951 | 0.0862 | – | 0.0747 | – | 0.0815 | 0.106 | 0.0902 | 0.13 | –
MGESLFKGPRDYNPISSSICHLTNESDGHTTSLYGIGFGPFIITNKHLFRRNNGTLVVQSLHGVFKVKDTTTLQQHLVDGRDMIIIRMPKDFPPFPQKLKFREPQREERICLVTTNFQTKSMSSMVSDTSCTFPSGDGIFWKHWIQTKDGQCGSPLVSTRDGFIVGIHSASNFTNTNNYFTSVPKNFMELLTNQEAQQWVSGWRLNADSDLWGGHKVFMVKPEEPFQPVKEATQL [V210D] | 0.0617 | 0.0702 | 0.0817 | – | 0.0601 | – | 0.0687 | 0.0939 | 0.075 | 0.074 | 0.0774 | – | 0.102 | – | 0.0551 | – | 0.0756 | 0.07 | –
